Experimental data published in patent US20240400654A1.
Residue numbers refer to the chain shown, from its start. Names may count otherwise. The source holds more than one record for some entries. They are shown here; other results are not. There may be further records. Values that stand side by side read as repeated measurements on other runs, samples or individuals; one of them may be the mean. Brackets with × say how often a value occurs here.

B1: KB001 parental mouse Fab FASEBA variant VH F101Y (Fab, V domains shown)
VH: EVQLKQSGPGLVAPSQSLSITCTVSGFSLSIYSVHWVRQPPGKGLEWLGMIWGGGSSDYNSALKSRLSISKDNSKSQVFLKMNSLQTDDTAMYYCARNGNYYAMDYWGQGTSVTVSS
VL: QIVLTQSPAIMSASLGERVTMTCTASSSVSSSFLHWYQQKPGSSPQLWIYSTSNLASGVPARFSGSGSGTSYSLTISSMEAEDAATYYCHQYHHSPYIYTFGGGTKLEIK
B2: KB001 parental mouse Fab FASEBA variant VH N100D (Fab, V domains shown)
VH: B1 VH with N100D, Y101F
VL: B1 VL
B3: parental mouse (KB001) Fab, FASEBA sample (Fab, V domains shown)
VH: B1 VH with Y101F
VL: B1 VL
B4: KB001 mouse Fab VH S57E (Fab, V domains shown)
VH: B1 VH with S57E, Y101F
VL: B1 VL
B5: KB001 mouse Fab VH S30D (Fab, V domains shown)
VH: B1 VH with S30D, Y101F
VL: B1 VL
B6: KB001 mouse Fab VL S27A (Fab, V domains shown)
VH: B1 VH with Y101F
VL: B1 VL with S27A
B7: KB001 mouse Fab VL S27T (Fab, V domains shown)
VH: B1 VH with Y101F
VL: B1 VL with S27T
B8: KB001 mouse Fab VH G53A (Fab, V domains shown)
VH: B1 VH with G53A, Y101F
VL: B1 VL
B9: KB001 mouse Fab VL S31N (Fab, V domains shown)
VH: B1 VH with Y101F
VL: B1 VL with S31N
B10: KB001 mouse Fab VL S31L (Fab, V domains shown)
VH: B1 VH with Y101F
VL: B1 VL with S31L
B11: KB001 mouse Fab VL S31G (Fab, V domains shown)
VH: B1 VH with Y101F
VL: B1 VL with S31G
B12: KB001 mouse Fab VL T52A (Fab, V domains shown)
VH: B1 VH with Y101F
VL: B1 VL with T52A
B13: KB001 mouse Fab VL T24S (Fab, V domains shown)
VH: B1 VH with Y101F
VL: B1 VL with T24S
B14: KB001 mouse Fab VH S56G (Fab, V domains shown)
VH: B1 VH with S56G, Y101F
VL: B1 VL
B15: KB001 mouse Fab VH I31Y (Fab, V domains shown)
VH: B1 VH with I31Y, Y101F
VL: B1 VL
B16: KB001 mouse Fab VH S56V (Fab, V domains shown)
VH: B1 VH with S56V, Y101F
VL: B1 VL
B17: KB001 mouse Fab VH A62T (Fab, V domains shown)
VH: B1 VH with A62T, Y101F
VL: B1 VL
B18: KB001 mouse Fab VH S57P (Fab, V domains shown)
VH: B1 VH with S57P, Y101F
VL: B1 VL
B19: KB001 mouse Fab VL S57K (Fab, V domains shown)
VH: B1 VH with Y101F
VL: B1 VL with S57K
B20: KB001 mouse Fab VH Y59L (Fab, V domains shown)
VH: B1 VH with Y59L, Y101F
VL: B1 VL
B21: KB001 mouse Fab VH S61D (Fab, V domains shown)
VH: B1 VH with S61D, Y101F
VL: B1 VL
B22: parental mouse (KB001) Fab, FASEBA supernatant (Fab, V domains shown)
VH: B1 VH with Y101F
VL: B1 VL
B23: KB001 mouse Fab VH S56Q (Fab, V domains shown)
VH: B1 VH with S56Q, Y101F
VL: B1 VL
B24: KB001 mouse Fab VH S61E (Fab, V domains shown)
VH: B1 VH with S61E, Y101F
VL: B1 VL
B25: KB001 mouse Fab VL S28F (Fab, V domains shown)
VH: B1 VH with Y101F
VL: B1 VL with S28F
B26: KB001 mouse Fab variant VL A56H (Fab, V domains shown)
VH: B1 VH with Y101F
VL: B1 VL with A56H
B27: KB001 mouse Fab variant VL S95K (Fab, V domains shown)
VH: B1 VH with Y101F
VL: B1 VL with S95K
B28: KB001 mouse Fab variant VL T100F (Fab, V domains shown)
VH: B1 VH with Y101F
VL: B1 VL with T100F
B29: KB001 mouse Fab variant VL A56Y (Fab, V domains shown)
VH: B1 VH with Y101F
VL: B1 VL with A56Y

target: HRgpA-6H (Porphyromonas gingivalis) (UniProt P28784); assay: ELISA, FASEBA screening, coated HRgpA-6H; variant OD over parental WT Fab OD

Question: Which Ratio OD(Variant)/OD(WT) does the source give for B1 here?
Answer: 0.815, 0.848, 0.871, 0.842, 0.864 [lines of one column]

Question: Which Ratio OD(Variant)/OD(WT) does the source give for B2 here?
Answer: 0.968, 0.926, 0.993, 0.994 [lines of one column]

target: HRgpA-6H (Porphyromonas gingivalis) (UniProt P28784); assay: ELISA, FASEBA screening, coated HRgpA-6H 0.0625 ug/ml

Question: B1 was tested. Which OD450 nm did it give?
Answer: 0.69, 0.718, 0.738, 0.713, 0.732 [lines of one column]

Question: B2 was tested. Which OD450 nm did it give?
Answer: 0.82, 0.784, 0.841, 0.842 [lines of one column]

target: HRgpA-6H (Porphyromonas gingivalis) (UniProt P28784); assay: ELISA, coated HRgpA-6H

Question: How did the OD450 nm turn out when B3 was run?
Answer: 0.806, 0.809, 0.796, 0.831, 0.835, 0.829, 0.823, 0.916, 0.872, 0.852, 0.825, 0.828, 0.842, 0.868, 0.697, 0.729, 0.71, 0.767, 0.705 [lines of one column]

Question: What about the Ratio OD(Variant)/OD(WT) of the same binder?
Answer: 1.05 (4×), 1.03 (3×), 1.06 (3×), 1.07, 1.08, 1.01, 0.825, 0.962, 0.811, 0.974, 0.895 [lines of one column]

Question: For B4, which OD450 nm is on record?
Answer: 0.777, 0.781, 0.723, 0.769 [lines of one column]

Question: What about the Ratio OD(Variant)/OD(WT) of the same binder?
Answer: 0.883, 0.888, 0.822, 0.874 [lines of one column]

Question: Which results are given for B5?
Answer: OD450 nm: 0.579, 0.563, 0.617, 0.528, 0.54, 0.552, 0.547, 0.448 [lines of one column]; Ratio OD(Variant)/OD(WT): 1.15, 1.12, 1.22, 1.05, 1.07, 1.09, 1.08, 0.888 [lines of one column]

Question: B6 was tested. Which OD450 nm did it give?
Answer: 0.816, 0.808, 0.714, 0.722 [lines of one column]

Question: What about the Ratio OD(Variant)/OD(WT) of the same binder?
Answer: 1.09, 1.08, 0.951, 0.962 [lines of one column]

Question: With B7 as the binder, how does the OD450 nm read?
Answer: 0.783, 0.702, 0.743, 0.737, 0.71 [lines of one column]

Question: And the Ratio OD(Variant)/OD(WT)?
Answer: 1.04, 0.935, 0.99, 0.982, 0.946 [lines of one column]

Question: Which OD450 nm does the source give for B8 here?
Answer: 0.664, 0.741, 0.67, 0.699 [lines of one column]

Question: What about the Ratio OD(Variant)/OD(WT) of the same binder?
Answer: 0.834, 0.93, 0.841, 0.878 [lines of one column]

Question: B9 was tested. Which OD450 nm did it give?
Answer: 0.869, 0.791, 0.749, 0.789, 0.769 [lines of one column]

Question: What about the Ratio OD(Variant)/OD(WT) of the same binder?
Answer: 1.03, 0.936, 0.886, 0.934, 0.91 [lines of one column]

Question: Which OD450 nm does the source give for B10 here?
Answer: 0.742, 0.739, 0.745, 0.691 [lines of one column]

Question: And the Ratio OD(Variant)/OD(WT)?
Answer: 0.878, 0.875, 0.882, 0.818 [lines of one column]

Question: Which OD450 nm does the source give for B11 here?
Answer: 0.864, 0.899, 0.824, 0.776 [lines of one column]

Question: What about the Ratio OD(Variant)/OD(WT) of the same binder?
Answer: 1.02, 1.06, 0.975, 0.918 [lines of one column]

Question: Which OD450 nm does the source give for B12 here?
Answer: 0.923, 0.848, 0.851, 0.782 [lines of one column]

Question: Which results are given for B13?
Answer: OD450 nm: 0.822, 0.798, 0.812, 0.704 [lines of one column]; Ratio OD(Variant)/OD(WT): 1.07, 1.04, 1.06, 0.915 [lines of one column]

Question: Which OD450 nm does the source give for B14 here?
Answer: 0.794, 0.823, 0.861, 0.819 [lines of one column]

Question: And the Ratio OD(Variant)/OD(WT)?
Answer: 0.903, 0.936, 0.979, 0.931 [lines of one column]

Question: How did the OD450 nm turn out when B15 was run?
Answer: 0.449, 0.436, 0.462, 0.454, 0.466 [lines of one column]

Question: What about the Ratio OD(Variant)/OD(WT) of the same binder?
Answer: 0.89, 0.864, 0.916, 0.9, 0.924 [lines of one column]

Question: Which OD450 nm does the source give for B16 here?
Answer: 0.761, 0.775, 0.777, 0.76 [lines of one column]

Question: And the Ratio OD(Variant)/OD(WT)?
Answer: 0.865, 0.881, 0.883, 0.864 [lines of one column]

Question: Which results are given for B17?
Answer: OD450 nm: 0.839, 0.812, 0.782, 0.827, 0.856 [lines of one column]; Ratio OD(Variant)/OD(WT): 0.96, 0.929, 0.895, 0.946, 0.979 [lines of one column]

Question: Which results are given for B18?
Answer: OD450 nm: 0.789, 0.801, 0.747, 0.724 [lines of one column]; Ratio OD(Variant)/OD(WT): 0.897, 0.911, 0.849, 0.823 [lines of one column]

Question: Which OD450 nm does the source give for B19 here?
Answer: 0.841, 0.84, 0.864, 0.846, 0.879 [lines of one column]

Question: And the Ratio OD(Variant)/OD(WT)?
Answer: 1.03 (2×), 1.06, 1.04, 1.08 [lines of one column]

Question: B20 was tested. Which OD450 nm did it give?
Answer: 0.758, 0.775, 0.752, 0.691 [lines of one column]

Question: And the Ratio OD(Variant)/OD(WT)?
Answer: 0.958, 0.98, 0.951, 0.874 [lines of one column]

Question: B21 was tested. Which OD450 nm did it give?
Answer: 0.562, 0.547, 0.549, 0.472 [lines of one column]

Question: What does the source list for B22?
Answer: OD450 nm: 0.538, 0.568, 0.55, 0.531, 0.924, 0.945, 0.955, 0.891, 0.898, 0.843, 0.733, 0.795, 0.785, 0.698, 0.476, 0.867, 0.803 [lines of one column]; Ratio OD(Variant)/OD(WT): 1.06, 1.05 (2×), 1.09, 1.12, 1.15, 1.16, 1.01, 1.02, 0.996, 0.83, 0.998, 0.992, 0.882, 0.965, 0.971 [lines of one column]

Question: What does the source list for B23?
Answer: OD450 nm: 0.718, 0.764, 0.728, 0.775 [lines of one column]; Ratio OD(Variant)/OD(WT): 0.816, 0.869, 0.828, 0.881 [lines of one column]

Question: Which results are given for B24?
Answer: OD450 nm: 0.603, 0.567, 0.588, 0.547 [lines of one column]; Ratio OD(Variant)/OD(WT): 1.22, 1.15, 1.19, 1.11 [lines of one column]

Question: For B25, which OD450 nm is on record?
Answer: 0.674, 0.721, 0.74, 0.678 [lines of one column]

Question: What about the Ratio OD(Variant)/OD(WT) of the same binder?
Answer: 0.898, 0.961, 0.986, 0.903 [lines of one column]

target: HRgpA-6H (Porphyromonas gingivalis) (UniProt P28784); assay: ELISA, FASEBA Fab supernatant on coated HRgpA-6H

Question: B26 was tested. Which OD450 nm did it give?
Answer: 0.704, 0.699, 0.759, 0.739 [lines of one column]

Question: How did the OD450 nm turn out when B27 was run?
Answer: 0.841, 0.824, 0.813, 0.79 [lines of one column]

Question: With B28 as the binder, how does the OD450 nm read?
Answer: 0.494, 0.492, 0.48, 0.517 [lines of one column]

Question: For B29, which OD450 nm is on record?
Answer: 0.673, 0.712, 0.726, 0.696, 0.698 [lines of one column]

target: HRgpA-6H (Porphyromonas gingivalis) (UniProt P28784); assay: ELISA on coated HRgpA-6H, OD relative to parental Fab

Question: Which Ratio OD(Variant)/OD(WT) does the source give for B26 here?
Answer: 0.863, 0.857, 0.931, 0.906 fold [lines of one column]

Question: For B27, which Ratio OD(Variant)/OD(WT) is on record?
Answer: 0.916, 0.897, 0.885, 0.86 fold [lines of one column]

Question: Which Ratio OD(Variant)/OD(WT) does the source give for B28 here?
Answer: 0.944, 0.94, 0.917, 0.988 fold [lines of one column]

Question: B29 was tested. Which Ratio OD(Variant)/OD(WT) did it give?
Answer: 0.825, 0.873, 0.89, 0.853, 0.856 fold [lines of one column]
